Measured values reported in the supplement of paper PMC12217912.
This is one part of the list. The full chains were built here from the parent and the listed change. Inactive controls read about 0.05.

B1: TEV protease; numbered along this chain (parent)
chain: MGESLFKGPRDYNPISSSICHLTNESDGHTTSLYGIGFGPFIITNKHLFRRNNGTLVVQSLHGVFKVKDTTTLQQHLVDGRDMIIIRMPKDFPPFPQKLKFREPQREERICLVTTNFQTKSMSSMVSDTSCTFPSGDGIFWKHWIQTKDGQCGSPLVSTRDGFIVGIHSASNFTNTNNYFTSVPKNFMELLTNQEAQQWVSGWRLNADSVLWGGHKVFMVKPEEPFQPVKEATQL

Variants of: B1
Experiment: raw area under fraction-flipped curve 0-4 h after induction (AUC4h, not background-subtracted), DNA-recorder readout of cleavage of the substrate (dimensionless); higher = more cleavage of the substrate by the protease variant
Settings: temperature: 34 °C; time window: 0-4 h after rhamnose induction
Experimental: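 In vivo DNA recorder in E. coli TOP10(DE3) ΔrhaA at 34 °C. Each TEVp single-site mutant (parent TEVp 0) is paired with a single-site variant of the 7-mer TEVs (canonical ENLYFQ|S). The substrate sits between flexible linkers in a Bxb1-sfGFP-TEVs-SsrA fusion, so cleavage stabilises Bxb1 and speeds flipping of a recombination array, read by NGS. The value is the raw area under the fraction-flipped curve over 0-4 h after rhamnose induction (AUC4h), with ≥20 reads per time point. It is not background-subtracted; inactive controls average about 0.047.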
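Note: Bxb1 expression induced with 0.2% (w/v) L-rhamnose at OD600 near 0.5, cultures sampled hourly, flipped fraction per protease–substrate barcode pair counted by paired-end Illumina sequencing.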

L191I
area with substrate ENLYFAS: 0.0685 | area with substrate ENLYFCS: 0.0278 | area with substrate ENLYFDS: 0.0772 | area with substrate ENLYFES: 0.0472 | area with substrate ENLYFFS: 0.0588 | area with substrate ENLYFGS: 0.0716 | area with substrate ENLYFHS: 0.0601 | area with substrate ENLYFIS: 0.0651 | area with substrate ENLYFMS: 0.0575 | area with substrate ENLYFNS: 0.0722 | area with substrate ENLYFPS: 0.0626 | area with substrate ENLYFRS: 0.0607 | area with substrate ENLYFVS: 0.0129

P94E
area with substrate ENLYFAS: 0.0493 | area with substrate ENLYFES: 0.0689 | area with substrate ENLYFFS: 0.0714 | area with substrate ENLYFHS: 0.0605 | area with substrate ENLYFIS: 0.0507 | area with substrate ENLYFKS: 0.105 | area with substrate ENLYFMS: 0.0693 | area with substrate ENLYFNS: 0.0885 | area with substrate ENLYFPS: 0.0631 | area with substrate ENLYFRS: 0.0542 | area with substrate ENLYFSS: 0.0528 | area with substrate ENLYFTS: 0.0616 | area with substrate ENLYFVS: 0.0571

S4V
area with substrate ENLYFAS: 0.0066 | area with substrate ENLYFCS: 0.0632 | area with substrate ENLYFDS: 0.037 | area with substrate ENLYFES: 0.0672 | area with substrate ENLYFFS: 0.0707 | area with substrate ENLYFIS: 0.0733 | area with substrate ENLYFLS: 0.0653 | area with substrate ENLYFMS: 0.103 | area with substrate ENLYFTS: 0.0551 | area with substrate ENLYFVS: 0.0612 | area with substrate ENLYFWS: 0.0495 | area with substrate ENLYFYS: 0.0584

G150L
area with substrate ENLYFAS: 0.0585 | area with substrate ENLYFCS: 0.058 | area with substrate ENLYFDS: 0.0582 | area with substrate ENLYFES: 0.0616 | area with substrate ENLYFFS: 0.0669 | area with substrate ENLYFHS: 0.0547 | area with substrate ENLYFIS: 0.0537 | area with substrate ENLYFKS: 0.0739 | area with substrate ENLYFLS: 0.0403 | area with substrate ENLYFMS: 0.0662 | area with substrate ENLYFNS: 0.0569 | area with substrate ENLYFPS: 0.0573 | area with substrate ENLYFRS: 0.0451 | area with substrate ENLYFVS: 0.0521 | area with substrate ENLYFWS: 0.0507 | area with substrate ENLYFYS: 0.0453

F95R
area with substrate ENLYFAS: 0.049 | area with substrate ENLYFCS: 0.0509 | area with substrate ENLYFDS: 0.048 | area with substrate ENLYFES: 0.0658 | area with substrate ENLYFFS: 0.0459 | area with substrate ENLYFGS: 0.0605 | area with substrate ENLYFHS: 0.0606 | area with substrate ENLYFIS: 0.0537 | area with substrate ENLYFKS: 0.0587 | area with substrate ENLYFLS: 0.0514 | area with substrate ENLYFMS: 0.0593 | area with substrate ENLYFNS: 0.0516 | area with substrate ENLYFPS: 0.0523 | area with substrate ENLYFRS: 0.0741 | area with substrate ENLYFTS: 0.0532 | area with substrate ENLYFVS: 0.0487 | area with substrate ENLYFWS: 0.0544 | area with substrate ENLYFYS: 0.0482

N45Q
area with substrate ENLYFAS: 0.0639 | area with substrate ENLYFCS: 0.0631 | area with substrate ENLYFDS: 0.0613 | area with substrate ENLYFFS: 0.0629 | area with substrate ENLYFGS: 0.0681 | area with substrate ENLYFIS: 0.0572 | area with substrate ENLYFLS: 0.0577 | area with substrate ENLYFMS: 0.0682 | area with substrate ENLYFNS: 0.0551 | area with substrate ENLYFPS: 0.0565 | area with substrate ENLYFRS: 0.0622 | area with substrate ENLYFSS: 0.0566 | area with substrate ENLYFTS: 0.0575 | area with substrate ENLYFWS: 0.067

E231M
area with substrate ENLYFAS: 0.0526 | area with substrate ENLYFCS: 0.0579 | area with substrate ENLYFDS: 0.0684 | area with substrate ENLYFES: 0.0536 | area with substrate ENLYFFS: 0.0592 | area with substrate ENLYFIS: 0.0568 | area with substrate ENLYFMS: 0.064 | area with substrate ENLYFPS: 0.0649 | area with substrate ENLYFRS: 0.0656 | area with substrate ENLYFSS: 0.0588 | area with substrate ENLYFTS: 0.0628

I164L
area with substrate ENLYFAS: 0.0598 | area with substrate ENLYFCS: 0.0628 | area with substrate ENLYFES: 0.0623 | area with substrate ENLYFFS: 0.0628 | area with substrate ENLYFGS: 0.0536 | area with substrate ENLYFHS: 0.0396 | area with substrate ENLYFIS: 0.0575 | area with substrate ENLYFKS: 0.0571 | area with substrate ENLYFLS: 0.0566 | area with substrate ENLYFMS: 0.0583 | area with substrate ENLYFNS: 0.0476 | area with substrate ENLYFPS: 0.0435 | area with substrate ENLYFRS: 0.0606 | area with substrate ENLYFSS: 0.0525 | area with substrate ENLYFTS: 0.0702 | area with substrate ENLYFVS: 0.0588 | area with substrate ENLYFYS: 0.0634

V229Y
area with substrate ENLYFAS: 0.0638 | area with substrate ENLYFCS: 0.0674 | area with substrate ENLYFDS: 0.046 | area with substrate ENLYFFS: 0.0768 | area with substrate ENLYFGS: 0.076 | area with substrate ENLYFHS: 0.0486 | area with substrate ENLYFIS: 0.0625 | area with substrate ENLYFKS: 0.063 | area with substrate ENLYFMS: 0.071 | area with substrate ENLYFNS: 0.0633 | area with substrate ENLYFPS: 0.0485 | area with substrate ENLYFRS: 0.0609 | area with substrate ENLYFTS: 0.0613 | area with substrate ENLYFVS: 0.0511 | area with substrate ENLYFWS: 0.0543 | area with substrate ENLYFYS: 0.0646

P222V
area with substrate ENLYFAS: 0.0558 | area with substrate ENLYFCS: 0.0412 | area with substrate ENLYFDS: 0.0571 | area with substrate ENLYFES: 0.0593 | area with substrate ENLYFFS: 0.0927 | area with substrate ENLYFGS: 0.0506 | area with substrate ENLYFHS: 0.068 | area with substrate ENLYFIS: 0.0547 | area with substrate ENLYFKS: 0.0631 | area with substrate ENLYFMS: 0.0626 | area with substrate ENLYFNS: 0.0633 | area with substrate ENLYFPS: 0.0669 | area with substrate ENLYFRS: 0.053 | area with substrate ENLYFSS: 0.0621 | area with substrate ENLYFTS: 0.0607 | area with substrate ENLYFYS: 0.0627

I145C
area with substrate ENLYFAS: 0.0584 | area with substrate ENLYFCS: 0.0552 | area with substrate ENLYFES: 0.0613 | area with substrate ENLYFFS: 0.0549 | area with substrate ENLYFHS: 0.0322 | area with substrate ENLYFIS: 0.0582 | area with substrate ENLYFMS: 0.0773 | area with substrate ENLYFNS: 0.0739 | area with substrate ENLYFPS: 0.0558 | area with substrate ENLYFRS: 0.0657 | area with substrate ENLYFTS: 0.0572 | area with substrate ENLYFVS: 0.0506 | area with substrate ENLYFWS: 0.057

F49H
area with substrate ENLYFAS: 0.032 | area with substrate ENLYFES: 0.0545 | area with substrate ENLYFFS: 0.0602 | area with substrate ENLYFIS: 0.0517 | area with substrate ENLYFKS: 0.0546 | area with substrate ENLYFLS: 0.0679 | area with substrate ENLYFMS: 0.0631 | area with substrate ENLYFPS: 0.052 | area with substrate ENLYFRS: 0.0796 | area with substrate ENLYFSS: 0.0725 | area with substrate ENLYFTS: 0.0599 | area with substrate ENLYFYS: 0.0576
